# Experimental data: the supplement of paper PMC4466236
# The full ranking holds about 33,000 sequences; the median of “E-score (dimensionless, -0.5 to 0.5)” is about -0.058, and the highest 2% start at about 0.35. The list shows a part of the results.
# System: MvaT
# Experiment: PBM 8-mer E-score (mean of HK and ME arrays) (E-score (dimensionless, -0.5 to 0.5)); higher = stronger relative binding preference; most listed sequences are background and not binding sites
# Procedure, shortened: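 Full-length P. aeruginosa MvaT, with glutathione S-transferase fused to its N-terminus (cloned into pTH6838 by isothermal assembly), was tested by protein binding microarray using a previously described protocol. Two universal double-stranded 60-mer arrays (ME and HK) were used, each with a constant 25-mer primer region and a variable 35-mer region covering all 8-mers. The rank-based 8-mer E-score (-0.5 to 0.5) is the mean of the two arrays, parsed with a custom Python script.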
row,Sequence,PBM 8-mer E-score
1,GTCTTCGA,-0.0711
2,ACCTGTGC,-0.145
3,GGTTGCTA,-0.00872
4,AGAACACT,0.0433
5,GCGTCATA,-0.0624
6,CTACCAAA,-0.0327
7,TCTCCAGA,-0.1
8,AAGAGTGA,0.00575
9,CTCCCAAC,-0.108
10,ACTCAGCA,-0.0592
11,CTCGTCGC,-0.208
12,AGGTCAAA,0.0141
13,GACTGGGA,-0.0592
14,ATAGCGAG,-0.0175
15,GACAGGGC,-0.226
16,ACCCTGCT,-0.2
17,CGTCGACA,-0.0858
18,GACAAGCC,-0.248
19,ACTCTCAG,-0.306
20,CCATGAGC,-0.162
21,CTCCGAAC,-0.208
22,ATGTGTTG,0.0944
23,CCGGAAAC,-0.137
24,GGTCAGAA,0.0193
25,GGAATTAA,0.347

row,Sequence,PBM 8-mer E-score
1,CATACAAG,0.161
2,AGGCTTGG,-0.273
3,AACCCGCA,0.0923
4,ACATAGTC,0.172
5,GAGTCGAC,-0.185
6,AGAAAGTC,0.145
7,ATAAATCG,0.255
8,ACTCATCC,0.0413
9,GCTACGAA,-0.148
10,ATGATTGG,-0.0765
11,AAACAGCC,-0.152
12,AGCCTGAC,-0.123
13,GCATGTAA,0.203
14,ATCAGGCA,-0.0666
15,ACCTCTCT,-0.125
16,AAAGCGTA,-0.0749
17,GCACGATA,0.0507
18,ACTAAAGC,-0.00643
19,GACCCACC,-0.106
20,GATACCCA,-0.0407
21,AACGCTCC,-0.0685
22,CAATCTGG,-0.0215
23,TAGATCAA,0.0579
24,CACATTAA,0.305
25,AAAGTGAT,0.155

row,Sequence,PBM 8-mer E-score
1,CCCCATGA,-0.118
2,GGACTCCA,-0.112
3,AGAAAACG,-0.00536
4,ACCATCCA,0.022
5,CCATCAAG,-0.184
6,AGCGTTCA,-0.188
7,GGCAAACC,-0.0556
8,TAACCTCA,0.0481
9,AGCTATGA,-0.0805
10,AAATCTGA,0.186
11,CATCGGAC,-0.146
12,GCGGTGAA,0.0808
13,CCTGGGCA,-0.253
14,ATTAAGCG,0.288
15,ACGTCTAT,0.096
16,CGTCCGGA,-0.159
17,CACGTATA,0.259
18,CATACCTC,-0.0525
19,TCGCTAAA,0.062
20,CACTCACA,0.0194
21,AGGTCCAT,-0.144
22,ACTGTTCA,0.0498
23,CACCGTCC,-0.0556
24,AATCGCCG,-0.0177
25,GCCGGTGA,-0.205

row,Sequence,PBM 8-mer E-score
1,CGATATCA,0.106
2,AGGCCGCA,-0.186
3,ATTATATA,0.47
4,CCGACACA,0.0805
5,AGATAAAA,0.178
6,AATTTCGT,0.157
7,AGTAACGA,0.137
8,GACACATA,0.198
9,AGGAACTC,-0.261
10,CGCTTGAG,-0.194
11,AAGCGACA,-0.0634
12,AAGGTAGT,0.0611
13,AACGCAGC,-0.111
14,GTATCCAA,-0.0284
15,GAATTCAC,0.086
16,ATTGACAG,0.14
17,GAAAGTCC,-0.0159
18,CACCGGAA,-0.0701
19,CCATGTGA,-0.122
20,AAATTAGA,0.191
21,TCCAATCA,-0.187
22,CTCGTTGA,-0.156
23,ACCTTTGA,-0.0994
24,CAGCCGCA,-0.0978
25,ATCCTCAA,0.054

row,Sequence,PBM 8-mer E-score
1,GCAATCGA,-0.0801
2,ACGTCATG,-0.11
3,ATTACGCG,0.0807
4,CGGGTAAC,-0.064
5,ACCAGCGA,-0.0283
6,CTGCACAG,-0.113
7,CACACCAG,-0.111
8,ACGACGCA,-0.191
9,AATCCCCA,-0.152
10,GGGAAGAC,-0.212
11,TAGCTAAA,0.105
12,AGGGATGG,-0.241
13,AGTTTTGC,0.0704
14,CGGACTAA,0.137
15,AGTAGCCC,-0.193
16,CGCAGTTC,-0.0668
17,CCACTAAG,0.145
18,AGTGGCAT,-0.0927
19,GCGAAGCA,-0.256
20,GGTACTAC,-0.167
21,CTTCGGGC,-0.194
22,CACCGATG,-0.205
23,CCCGATTA,0.0691
24,AGGACTGC,-0.226
25,AGACTCAG,-0.191

row,Sequence,PBM 8-mer E-score
1,AGATTTTA,0.211
2,TATTGGGA,0.139
3,GGAGGACC,-0.423
4,GCGTTGTA,0.0698
5,CTAGCCAC,-0.0783
6,CCATGAAA,0.0879
7,ACGGATCT,-0.149
8,GTATTCGA,0.101
9,GTGGGCGA,-0.144
10,ACTAGTAT,0.357
11,CAGAGGAC,-0.198
12,ATAGAACC,0.0137
13,ACAGACCA,0.0186
14,CCGGAGAC,-0.175
15,ACAAGGGT,-0.0998
16,CTGACCGC,-0.252
17,AAGGATAG,-0.0902
18,TCATAGGA,-0.0968
19,ACATGGGT,-0.168
20,GGAACTCA,-0.0926
21,TCATGGAA,0.0365
22,AGTAGCAC,0.0248
23,ACGTTAGG,0.001
24,ACGAACGC,-0.117
25,AGCTACGC,-0.246

row,Sequence,PBM 8-mer E-score
1,TAAAGAAA,0.182
2,CTTCTCTC,-0.128
3,CTTAGCTA,0.0437
4,ACGCCTCG,-0.166
5,CGCGGATA,0.125
6,GGTAGTCA,-0.169
7,ATCACCAG,-0.0845
8,ACTGAAAA,0.15
9,ACAGCTCG,-0.0961
10,GACCTTCA,-0.12
11,CGACTGCC,-0.236
12,ATTAAACG,0.284
13,CTAGTAAA,0.0929
14,ACAGGCGA,-0.0735
15,AAAGTCGT,0.155
16,AAGCGGCT,-0.196
17,ATCCCAAC,0.0284
18,CAAAACTG,-0.0206
19,CTATCGTC,-0.143
20,CTGGCTTC,-0.179
21,ACGAAAAC,0.09
22,TAGCGCTA,-0.00506
23,ATCGGTAC,0.0402
24,ATCATAGA,0.1
25,AAGGACGT,-0.149

row,Sequence,PBM 8-mer E-score
1,TATGGGGA,-0.154
2,ACATGCCG,-0.084
3,CGAAGGCA,-0.222
4,ATGTTGGC,0.12
5,AAGTGACC,0.02
6,ATTTCAGG,-0.0723
7,GCCATTGA,-0.243
8,CCAACTTA,0.308
9,GAAGCTGC,-0.257
10,CCTTTGAC,-0.19
11,CTCTTGGC,-0.19
12,CGCGTCAC,-0.153
13,ATGTCACA,0.13
14,TGATGGAA,0.0193
15,AATGTGAG,0.0855
16,GTTTAAAA,0.293
17,AAGACTAA,0.208
18,TCAGCCAA,-0.127
19,ATCTCGCA,0.101
20,AGAATGCG,0.0191
21,AGCAGCCG,-0.209
22,GTACCTAC,-0.0955
23,ACCTGTTA,0.0504
24,CTCACCGA,-0.102
25,ACTTTTGC,0.0662

row,Sequence,PBM 8-mer E-score
1,AAGTTGCT,0.128
2,CTAGCGTA,-0.0493
3,AGACTAGC,-0.0886
4,GCTAAGGA,-0.182
5,ACCCGCCG,-0.149
6,ACAGGACA,-0.165
7,CGCACTGA,-0.0326
8,GGACACTA,-0.164
9,ACACCCAA,-0.0593
10,AGTATCGA,0.12
11,AGGCATTG,-0.173
12,CGACAGCG,-0.032
13,TACGAATA,0.204
14,CTGACGGA,-0.0885
15,ACACCAAG,-0.207
16,AATCGAGC,-0.121
17,CACGGCGA,-0.143
18,CCTTCACA,-0.0342
19,AACTTCTG,0.131
